Reference: the supplement of paper PMC3334620
Over roughly 33,000 sequences, “E-score (-0.5 to 0.5)” has its median near -0.054; the highest 2% begin near 0.39. The list shows a part of the results.

Each sequence was assayed against Ylr278c (UniProt Q05854) (assay: PBM E-score (8-mer binding enrichment) (E-score (-0.5 to 0.5)); higher = stronger / more preferred TF binding; most listed sequences are background and not binding sites). Conditions: protein concentration: 200 nM; construct: GST-DNA-binding domain.
In short: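 Yeast transcription factors carrying a GST tag, as full-length proteins or DNA-binding domains, were produced by PURExpress in vitro transcription/translation. About 100-200 nM protein was applied to universal all-10-mer Agilent arrays, double-stranded by primer extension on fresh or once-stripped slides. Bound protein was detected with fluorescent anti-GST, and scans were normalised with masliner. The Universal PBM Analysis Suite gave each ungapped eight-base word, pooled with its reverse complement, an E-score, a modified Wilcoxon-Mann-Whitney statistic.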
For AGCCAGTC, the “PBM E-score” value was -0.13. With AGTTTGAG the “PBM E-score” value was -0.0067. With AGTATGAA the “PBM E-score” value was 0.208. For GCAGTCGC, the “PBM E-score” value was -0.166. With ATAGGGGA the “PBM E-score” value was -0.141. For GGCCGTGA, the “PBM E-score” value was 0.148. With ATGAGGCA the “PBM E-score” value was -0.258. In the case of GACGTTGC, the “PBM E-score” value is reported as -0.0429. In the case of ATATCATA, the “PBM E-score” value is reported as -0.0875. ATATGCGC was tested, and the “PBM E-score” value was 0.00517. In the case of AGGTACCC, the “PBM E-score” value is reported as -0.262. CTTATAGC was tested, and the “PBM E-score” value was -0.203. In the case of CATCCAAC, the “PBM E-score” value is reported as -0.114. In the case of CATAGTAG, the “PBM E-score” value is reported as -0.163. For CTATGAGC, the “PBM E-score” value was -0.3. For AAGTCCCC, the “PBM E-score” value was 0.0247. With AACCCGGG the “PBM E-score” value was 0.319. GAGGGTGA was tested, and the “PBM E-score” value was -0.183. For TAGCTAGA, the “PBM E-score” value was -0.285. In the case of AAGTACGG, the “PBM E-score” value is reported as 0.0776. CGGCACCG was tested, and the “PBM E-score” value was 0.378. With AATGCCGC the “PBM E-score” value was 0.352. For CACGACTC, the “PBM E-score” value was -0.12. In the case of GAACAACC, the “PBM E-score” value is reported as 0.1. For CAATGCTC, the “PBM E-score” value was -0.0684. With ATTGTAAG the “PBM E-score” value was -0.175. With CAAACTTG the “PBM E-score” value was -0.104. For ACGCGCAC, the “PBM E-score” value was 0.0133. With GAAGAGCA the “PBM E-score” value was -0.0722. With CAAGAGCA the “PBM E-score” value was -0.262. ATCCACCA was tested, and the “PBM E-score” value was -0.234. For CCACGCAA, the “PBM E-score” value was -0.0373. With CTTGCTTA the “PBM E-score” value was -0.123. In the case of TACACCGA, the “PBM E-score” value is reported as 0.242. ATATGCCA was tested, and the “PBM E-score” value was 0.0234. In the case of AACCCGGT, the “PBM E-score” value is reported as 0.304. In the case of GAAAAGGC, the “PBM E-score” value is reported as 0.0827. In the case of AACACATA, the “PBM E-score” value is reported as -0.188. In the case of GTGCCTGA, the “PBM E-score” value is reported as -0.0603. TCAACAAA was tested, and the “PBM E-score” value was -0.0688. In the case of ACAACGGT, the “PBM E-score” value is reported as -0.167. For ACACGGTA, the “PBM E-score” value was 0.0246. With AAACGATG the “PBM E-score” value was 0.0454. TAGCTGCA was tested, and the “PBM E-score” value was -0.184. For ATATGGGC, the “PBM E-score” value was -0.0292. With CCACCGAC the “PBM E-score” value was 0.0976. For AAAGAGAT, the “PBM E-score” value was -0.185. With TACAGATA the “PBM E-score” value was 0.0234. With AATCCTGC the “PBM E-score” value was -0.069. AGAATGAA was tested, and the “PBM E-score” value was -0.173. With TAGTTGGA the “PBM E-score” value was 0.0205. With TCGGCTAA the “PBM E-score” value was 0.122. For AGACGGTA, the “PBM E-score” value was -0.103. For GCTCAGAC, the “PBM E-score” value was -0.152. With AACCCGTT the “PBM E-score” value was 0.0139. ACTCGAGT was tested, and the “PBM E-score” value was -0.225. With CACCCAGC the “PBM E-score” value was -0.00607. For AGGCAGCC, the “PBM E-score” value was 0.0103. With AAAACGGG the “PBM E-score” value was 0.192. For AATTGGGG, the “PBM E-score” value was -0.0147. In the case of GAAGCTCA, the “PBM E-score” value is reported as -0.098. For CGCCTCCC, the “PBM E-score” value was -0.0118. In the case of CCGGATAG, the “PBM E-score” value is reported as 0.347. For ACCAAAAG, the “PBM E-score” value was -0.224. AATGCAGC was tested, and the “PBM E-score” value was -0.184. For GGGGCATA, the “PBM E-score” value was 0.00676. With ACCGAGTG the “PBM E-score” value was -0.0762. In the case of TCATAAGA, the “PBM E-score” value is reported as -0.123. With TACATCCA the “PBM E-score” value was -0.235. CGCGGTAC was tested, and the “PBM E-score” value was 0.212. For AGGCTGCG, the “PBM E-score” value was -0.179. With CCTGGGCC the “PBM E-score” value was -0.0612. For TAATTTCA, the “PBM E-score” value was -0.0427. CCAGTAAA was tested, and the “PBM E-score” value was -0.0398. With AGTATTCA the “PBM E-score” value was -0.063. TCATCCCA was tested, and the “PBM E-score” value was -0.268. With GACTCTAA the “PBM E-score” value was 0.00309. With CGACCGGA the “PBM E-score” value was 0.409. In the case of GTGGAAGA, the “PBM E-score” value is reported as -0.118. In the case of TATTGAGA, the “PBM E-score” value is reported as -0.023. With CCTTTAAG the “PBM E-score” value was -0.27. For ACCGGCGG, the “PBM E-score” value was 0.402. For CGGCCGAC, the “PBM E-score” value was 0.309. ACAGAGAA was tested, and the “PBM E-score” value was -0.124. CTAGGTGC was tested, and the “PBM E-score” value was -0.163. With ACTGGCGG the “PBM E-score” value was 0.17. For GTAAGTCA, the “PBM E-score” value was -0.17. For CGAAAAAG, the “PBM E-score” value was 0.105. For ACGCCCGA, the “PBM E-score” value was 0.249. In the case of ACTTCCCA, the “PBM E-score” value is reported as -0.15. With GCATCAAC the “PBM E-score” value was 0.0558. AAAATTTA was tested, and the “PBM E-score” value was -0.0856. In the case of CCTGTAAG, the “PBM E-score” value is reported as -0.28. AGCATTTG was tested, and the “PBM E-score” value was -0.0183. In the case of AAAGAAGG, the “PBM E-score” value is reported as -0.134. With GCGAAAGC the “PBM E-score” value was -0.0157. In the case of AGTACAGG, the “PBM E-score” value is reported as -0.207. For ATAATGTC, the “PBM E-score” value was 0.194. CCGTAACA was tested, and the “PBM E-score” value was 0.0638. For CGGCTGGC, the “PBM E-score” value was 0.0963. With ACTTCCAA the “PBM E-score” value was -0.204. ATGCACAT was tested, and the “PBM E-score” value was -0.11. ATTTGTCA was tested, and the “PBM E-score” value was -0.182. For ATGTAAGA, the “PBM E-score” value was -0.0831. With ACACGACG the “PBM E-score” value was -0.147. AATCAAGT was tested, and the “PBM E-score” value was -0.178. ACTAGAAT was tested, and the “PBM E-score” value was -0.0455. With AACTATGT the “PBM E-score” value was -0.0275. ACCAGGGA was tested, and the “PBM E-score” value was -0.254.
